Data from patent US5620958A, “Bradykinin antagonists” (Coretech, Inc., priority 1994, dated 1997).
At least one peptide structure holds a part that was inferred or is arguable (an end, a ring closure or a residue). Peptide text beside a SMILES is read from it.

How the values were obtained:
[1] = molecular target: T1, BK2 receptor (Cavia porcellus, UniProt O70526); test: guinea-pig ileum (GPI) in vitro, antagonism of BK; format: cell-based; conditions: Table B
T1 construct: tested for activity on guinea pig ileum in vitro on the standard tissue bath/strain gauge system; from tissue; host or cells: guinea pig ileum
T1 sequence (O70526 1-372): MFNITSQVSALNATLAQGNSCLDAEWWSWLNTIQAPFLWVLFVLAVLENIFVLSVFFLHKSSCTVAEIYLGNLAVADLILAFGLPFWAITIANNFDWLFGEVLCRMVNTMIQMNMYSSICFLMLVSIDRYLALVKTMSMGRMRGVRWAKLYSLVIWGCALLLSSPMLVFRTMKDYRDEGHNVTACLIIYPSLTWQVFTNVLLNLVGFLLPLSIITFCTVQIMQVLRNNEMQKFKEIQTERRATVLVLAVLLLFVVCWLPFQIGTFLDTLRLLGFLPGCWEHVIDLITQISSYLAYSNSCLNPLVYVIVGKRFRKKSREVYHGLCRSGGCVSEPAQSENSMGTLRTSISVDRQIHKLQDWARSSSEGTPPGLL
Protocol: Thus, in vitro studies were performed on standard assay systems, namely, guinea-pig ileum (GPI), rat uterus (RU) and rabbit jugular vein (RJV). […] The potency of each compound was assessed as a pA2 value according to the method of Arunlakshana & Schild, Br. J. Pharmacol. Chemother., 1.4:48-58 (1959). The pA2 can be defined as the negative logarithm of the molar concentration of the antagonist in the presence of which the potency of the agonist is reduced two-fold, i.e., twice the amount of agonist is required to produce a given response in the presence of, than in the absence of, the antagonist. A high potency of antagonism is indicated by a high pA2 value, i.e., a low concentration of antagonist is effective.
The percentage recovery (% Rec) was also determined for compounds with respect to each assay.
The various compounds identified in Table B below were prepared following the procedure of Example 1 with the Cys moiety introduced into the parent CP-0088 at the position indicated followed by reaction between the sulfhydryl group of the Cys residue and BMH to provide dimers as indicated. The Cys-modified monomers and the resultant dimers were tested for activity on guinea pig ileum in vitro on the standard tissue bath/strain gauge system as before.

[2] = molecular target: T2, BK1 receptor (Oryctolagus cuniculus, UniProt P48748); test: blood pressure response to BK1 agonist in LPS-pretreated rabbits; format: in vivo, rabbit; conditions: rabbits given LPS (10 μg) 20 hours before
T2 construct: when administered to an intact animal; from tissue; host or cells: whole rabbit (systemic arterial blood pressure), LPS-pretreated
T2 sequence (P48748 1-352): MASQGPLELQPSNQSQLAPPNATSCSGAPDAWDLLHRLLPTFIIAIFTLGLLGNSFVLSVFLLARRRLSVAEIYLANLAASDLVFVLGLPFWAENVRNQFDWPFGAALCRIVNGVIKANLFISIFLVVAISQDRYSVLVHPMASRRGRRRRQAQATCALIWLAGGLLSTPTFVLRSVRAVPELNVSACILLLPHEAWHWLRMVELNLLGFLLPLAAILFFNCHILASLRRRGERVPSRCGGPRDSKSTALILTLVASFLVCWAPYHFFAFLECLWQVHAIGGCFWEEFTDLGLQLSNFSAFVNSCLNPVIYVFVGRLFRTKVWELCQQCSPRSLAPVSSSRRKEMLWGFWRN

[3] = molecular target: T3, BK2 receptor (Oryctolagus cuniculus, UniProt Q28642); test: blood pressure response to BK2 agonist in LPS-pretreated rabbits; format: in vivo, rabbit; design: key: +: indicates complete blockade of the blood pressure response to the appropriate agonist; +/-: indicates partial blockade; -: indicates no observable effect at the dose indicated; conditions: rabbits given LPS (10 μg) 20 hours before
T3 construct: when administered to an intact animal; from tissue; host or cells: whole rabbit (systemic arterial blood pressure), LPS-pretreated
T3 sequence (Q28642 1-367): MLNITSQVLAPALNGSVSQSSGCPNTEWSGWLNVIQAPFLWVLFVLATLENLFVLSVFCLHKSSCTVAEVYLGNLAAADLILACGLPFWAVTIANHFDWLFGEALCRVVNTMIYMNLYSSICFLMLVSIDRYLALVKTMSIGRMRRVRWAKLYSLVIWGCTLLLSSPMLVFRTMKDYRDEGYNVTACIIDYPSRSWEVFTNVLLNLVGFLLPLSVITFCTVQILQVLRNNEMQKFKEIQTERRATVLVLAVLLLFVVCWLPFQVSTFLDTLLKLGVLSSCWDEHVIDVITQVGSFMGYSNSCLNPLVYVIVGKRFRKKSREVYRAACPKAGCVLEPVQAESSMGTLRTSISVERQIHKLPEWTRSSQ

[4] = system: BK-induced pain; test: pain response to intra-arterial BK in conscious rats; format: in vivo, rat; conditions: single S.C. injection 3.6 μmol kg^-1
[5] = system: BK-induced vascular permeability; test: rabbit skin vascular permeability to intradermal BK (Evans Blue); format: in vivo; conditions: pre-injected 15 or 30 minutes before BK in the same site; FIGS. 2B, 2C
[6] = system: BK-induced hypotension; test: BK-induced hypotension in the anesthetized rat; format: in vivo
Protocol: After stopping the infusion of CP-0127, it can be seen that the responses to BK returned slowly being fully recovered after approximately 20 minutes.
Using anaesthetized rats, dose-response curves to BK were constructed and the ED50 identified (see FIG. 5a). The ED50 was then injected before and at 15 minute intervals after a single S.C. injection of CP-0127.

[7] = molecular target: T4, NK1 receptor (Cavia porcellus, UniProt P30547); test: guinea pig ileum assay of NK1 receptor activity against substance P; format: cell-based; conditions: reference NK1 ligand
T4 construct: a standard guinea pig ileum assay of NK1 receptor activity; from tissue; host or cells: guinea pig ileum
T4 sequence (P30547 whole entry): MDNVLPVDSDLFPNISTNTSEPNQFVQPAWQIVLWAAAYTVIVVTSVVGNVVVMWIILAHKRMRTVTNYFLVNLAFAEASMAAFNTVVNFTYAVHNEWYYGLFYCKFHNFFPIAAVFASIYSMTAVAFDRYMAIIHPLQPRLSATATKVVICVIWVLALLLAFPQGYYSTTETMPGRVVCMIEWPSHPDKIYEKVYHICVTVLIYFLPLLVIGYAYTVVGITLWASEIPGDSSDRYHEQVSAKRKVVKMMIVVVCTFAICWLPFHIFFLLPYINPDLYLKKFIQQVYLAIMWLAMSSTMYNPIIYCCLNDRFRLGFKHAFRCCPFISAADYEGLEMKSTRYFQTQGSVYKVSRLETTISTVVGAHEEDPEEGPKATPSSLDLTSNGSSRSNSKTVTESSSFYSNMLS
From the text: In order to illustrate the potential of blocking two different receptor populations with a single compound a consensus NK1 receptor antagonist (DArg-DPro-Lys-Pro-Gln-Asn-DPhe-Phe-DTrp-Leu-Nle) was synthesized. […] Once the activity of this reference ligand was established, a series of lysine containing monomers formed by the systematic substitution of a lysine residue sequentially through the reference peptide was synthesized.

Structure (SMILES)	pA2 GUINEA PIG ILEUM [1]	OBSERVED ANTAGONIST ACTIVITY BK1 ([2]; 1 μg kg^-1 min^-1)	OBSERVED ANTAGONIST ACTIVITY BK1 ([2]; 3 μg kg^-1 min^-1)	OBSERVED ANTAGONIST ACTIVITY BK1 ([2]; 10 μg kg^-1 min^-1)	OBSERVED ANTAGONIST ACTIVITY BK2 ([3]; 1 μg kg^-1 min^-1)	OBSERVED ANTAGONIST ACTIVITY BK2 ([3]; 3 μg kg^-1 min^-1)	OBSERVED ANTAGONIST ACTIVITY BK2 ([3]; 10 μg kg^-1 min^-1)	pain response to intra-arterial BK ([4]; BK 20 nmoles kg^-1, FIG. 6)	duration of inhibition of pain response ([4]; duration of the experiment)	inhibition of BK-induced skin vascular permeability [5]	blood pressure response to BK (ED50) after single S.C. dose ([6]; 3.6 μmol kg^-1 S.C., FIG. 5b)	duration of block of BK responses after single S.C. dose ([6]; 3.6 μmol kg^-1 S.C., duration of the experiments)	time to full recovery of BK responses after stopping infusion ([6]; after intravenous infusion 9 nmol kg^-1 min^-1)	inhibition of hypotensive response to BK ([6]; intravenous infusion 9 nmol kg^-1 min^-1, BK 4×10^-9 moles, FIG. 3)	pA2 against substance P [7]
CC(C)C[C@H](NC(=O)[C@@H](Cc1ccccc1)NC(=O)[C@H](CO)NC(=O)[C@H](Cc1ccccc1)NC(=O)CNC(=O)[C@@H]1C[C@@H](O)CN1C(=O)[C@@H]1CCCN1C(=O)[C@H](CCCNC(=N)N)NC(=O)[C@H](N)CCCNC(=N)N)C(=O)N[C@@H](CCCNC(=N)N)C(=O)O [CP-0088, DARG^0 -Arg^1 -Pro^2 -Hyp^3 -Gly^4 -Phe^5 -Ser^6 -(D)Phe^7 -Leu^8 -Arg^9, reference compound] (HELM PEPTIDE1{[dR].R.P.[Hyp].G.F.S.[dF].L.R}$$$$V2.0)	6.5 ± 0.2	-	-	-	+	+	+								
CC(C)C[C@H](NC(=O)[C@@H](Cc1ccccc1)NC(=O)[C@H](CSC1CC(=O)N(CCCCCCN2C(=O)CC(SC[C@H](NC(=O)[C@H](Cc3ccccc3)NC(=O)CNC(=O)[C@@H]3C[C@@H](O)CN3C(=O)[C@@H]3CCCN3C(=O)[C@H](CCCNC(=N)N)NC(=O)[C@H](N)CCCNC(=N)N)C(=O)N[C@H](Cc3ccccc3)C(=O)N[C@@H](CC(C)C)C(=O)N[C@@H](CCCNC(=N)N)C(=O)O)C2=O)C1=O)NC(=O)[C@H](Cc1ccccc1)NC(=O)CNC(=O)[C@@H]1C[C@@H](O)CN1C(=O)[C@@H]1CCCN1C(=O)[C@H](CCCNC(=N)N)NC(=O)[C@H](N)CCCNC(=N)N)C(=O)N[C@@H](CCCNC(=N)N)C(=O)O (stereo partly drawn) [CP-0127] (HELM PEPTIDE1{[dR].R.P.[Hyp].G.F.C.[dF].L.R}|PEPTIDE2{[dR].R.P.[Hyp].G.F.C.[dF].L.R}|CHEM1{[O=C1CC([*:1])C(=O)N1CCCCCCN1C(=O)CC([*:2])C1=O]}$PEPTIDE1,CHEM1,7:R3-1:R1|PEPTIDE2,CHEM1,7:R3-1:R2$$$V2.0)		-	-	-				totally abolished the response to BK	approximately 2 hours	totally inhibited responses to bradykinin	totally blocked	at least 2 hours	approximately 20 minutes	almost totally inhibited responses	
CCCC[C@H](NC(=O)[C@H](CC(C)C)NC(=O)[C@@H](Cc1c[nH]c2ccccc12)NC(=O)[C@H](Cc1ccccc1)NC(=O)[C@@H](Cc1ccccc1)NC(=O)[C@H](CC(N)=O)NC(=O)[C@H](CCC(N)=O)NC(=O)[C@@H]1CCCN1C(=O)[C@H](CCCCN)NC(=O)[C@H]1CCCN1C(=O)[C@H](N)CCCNC(=N)N)C(N)=O [consensus NK1 receptor antagonist, DArg-DPro-Lys-Pro-Gln-Asn-DPhe-Phe-DTrp-Leu-Nle, reference compound] (HELM PEPTIDE1{[dR].[dP].K.P.Q.N.[dF].F.[dW].L.[Nle].[am]}$$$$V2.0)															5.6
